Results published in PubChem BioAssay (NCATS).
“And” between values parts separate entries of the source, which are not always exact repeats. Equal values may be shown once. This list was built around the results that the source calls inconclusive (neither active nor inactive); the mix of calls is not that of the screen. Where a call stands in place of a potency, no number is given. For some assays here: Potencies beside an inconclusive call are fits to weak or partial responses and may not hold up. The source made the active and inactive calls. The call rests on the fitted dose curve; in most records, active means well fitted curve in the direction sought with a large enough effect; inconclusive means small, poorly fitted or top-dose-only effect, or another doubt; inactive means no such curve, though single readings can be large; an effect the other way counts as inactive or inconclusive.

How the values were obtained:
[1] = Viability qHTS for spleen associated tyrosine kinase inhibitor (SYKi) naive MV4-11 cells (AID 1963823); conditions: MV4-11 AML viability, CellTiter-Glo luminescence, 72 h; series mostly up to 45 µM; further: nearly all actives have a fitted effect of over 40% in size; further: potency means the concentration at half of the fitted maximal effect
How it was run: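 Read-out: CellTiter-Glo luminescence. Exposure: 72 hr, 37 C, 5% CO2, 95% humidity. Cells: MV4-11 without SYK inhibitor history, 500/well, qHTS format.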

[2] = Viability qHTS for spleen associated tyrosine kinase inhibitor (SYKi) drug resistant MV4-11 cells (AID 1963824); further: nearly all actives have a fitted effect of over 35% in size; further: potency means the concentration at half of the fitted maximal effect
How it was run: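 SYK-inhibitor-resistant MV4-11 AML cells were seeded at 500 per well onto compound and cultured 72 hours (37 °C, 5% CO2). CellTiter-Glo was then added, and after 10 min at room temperature, luminescence gave viability.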

[3] = Quantitative highthroughput screen to assess conditional lethalithy of P12 Ichikawa cells grown in RPMI1640 with dialyzed fetal bovine serum (RPMI+ds) (AID 1963880); conditions: Potency: P12-Ichikawa viability; further: nearly all actives have a fitted effect of over 35% in size
How it was run: (§1)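 Each medium arm—HPLM with 10% dialyzed FBS, or RPMI1640 with 5 mM glucose and 10% untreated or dialyzed FBS—was screened against an 11-point, 3-fold compound titration for 48 h at 37 °C, with CellTiter-Glo luminescence as endpoint.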

[4] = Quantitative highthroughput screen to assess conditional lethalithy of P12 Ichikawa cells grown in RPMI1640 with untreated serum (RPMI+s) (AID 1963881); conditions: Potency: viability; further: nearly all actives have a fitted effect of over 35% in size; further: potency means the concentration at half of the fitted maximal effect
How it was run: as §1

[5] = Quantitative highthroughput screen to assess conditional lethalithy of SEM cells grown in Human Plasma-Like Medium with dialyzed fetal bovine serum (HPLM+ds) (AID 1963882); further: nearly all actives have a fitted effect of over 35% in size; further: potency means the concentration at half of the fitted maximal effect
How it was run: as §1

[6] = Quantitative highthroughput screen to assess conditional lethalithy of SEM cells grown in RPMI1640 with dialyzed fetal bovine serum (RPMI+ds) (AID 1963884); conditions: SEM B-ALL cells, RPMI+dialyzed FBS, CellTiter-Glo viability, 48 h; viability: at 45.8 µM (top of the series); further: nearly all actives have a fitted effect of over 35% in size; further: potency means the concentration at half of the fitted maximal effect
How it was run: as §1

[7] = Quantitative highthroughput screen to assess conditional lethalithy of P12 Ichikawa cells grown in Human Plasma-Like Medium with dialyzed fetal bovine serum (HPLM+ds) (AID 1963879); conditions: Potency: viability; further: nearly all actives have a fitted effect of over 35% in size
How it was run: as §1

[8] = Quantitative highthroughput screen to assess conditional lethalithy of SEM cells grown in RPMI1640 with unreated serum (RPMI+s) (AID 1963883); conditions: SEM B-ALL cells, CellTiter-Glo viability, 48 h; viability: at 45.8 µM (top of the series); further: nearly all actives have a fitted effect of over 35% in size; further: potency means the concentration at half of the fitted maximal effect
How it was run: as §1

[9] = Cellular viability qHTS for adrenocortical cancer (ACC) cell line NCI-H295R (AID 1963990); conditions: CellTiter-Glo ATP luminescence, 48 h; series mostly up to 46.1 µM; further: nearly all actives have a fitted effect of over 60% in size
How it was run: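 Viability of NCI-H295R after 48 h of treatment (final up to 46 uM) measured through cellular ATP luminescence.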
Tags describe the fitted curve by direction and shape.

Structure (SMILES) | Potency [1] | Potency [2] | Potency [3] | Potency [4] | Potency [5] | Potency [6] | Potency [7] | Potency [8] | Potency [9]
Nc1ccn([C@@H]2CS[C@H](CO)O2)c(=O)n1 | inactive | inactive | inactive | inactive | inactive | inactive | – | – | –
NC(=O)c1cccc(N)c1 | inconclusive: 1.7 nM [rising, full curve, poor fit] | inconclusive: 1.3 nM [rising, full curve, poor fit] | – | – | – | inconclusive: 16.6 nM [rising, full curve, poor fit] | inactive | inconclusive: 16.6 nM [rising, full curve, poor fit] | –
CC(O)C1C(=O)N2C(C(=O)O)=C(SC3CNC(C(=O)N(C)C)C3)C(C)C12 (centres undefined) | inactive | inactive | inactive | inactive | – | inactive | – | inactive | –
Cc1ccc2c(c1)c1c(n2CCc2ccc(C)nc2)CCN(C)C1 | inconclusive: 23100 nM [cytotoxic, single point] | inconclusive: 23100 nM [cytotoxic, single point] | inactive | inconclusive: 11800 nM [cytotoxic, single point] | – | inactive | – | – | –
CCCCN(CCCC)C(=O)CN1C[C@H](c2ccc3c(c2)OCO3)[C@@H](C(=O)O)[C@@H]1c1ccc(OC)cc1 | inconclusive: 23.1 µM [cytotoxic, partial curve, poor fit] and active: 16.6 µM | inconclusive: 25.9 µM [cytotoxic, single point] and inconclusive: 23.5 µM [cytotoxic, single point] | – | inconclusive: 2340 nM [cytotoxic, partial curve, poor fit] | active: 2090 nM | inconclusive: 3310 nM [cytotoxic, full curve, poor fit] | – | inconclusive: 8310 nM [cytotoxic, partial curve] | inactive
